The list shows a part of the results.

The target of this test is T1, OsWOX13 (Oryza sativa, UniProt Q5QMM3 1-267).
T1 sequence: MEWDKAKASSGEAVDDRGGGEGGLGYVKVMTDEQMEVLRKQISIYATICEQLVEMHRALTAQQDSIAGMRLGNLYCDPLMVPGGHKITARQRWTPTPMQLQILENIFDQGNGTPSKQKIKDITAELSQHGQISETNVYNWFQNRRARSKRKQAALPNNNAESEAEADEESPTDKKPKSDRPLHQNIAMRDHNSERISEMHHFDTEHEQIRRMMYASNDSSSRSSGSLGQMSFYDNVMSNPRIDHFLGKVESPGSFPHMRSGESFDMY
The test can be described thus: protein-binding microarray (RPBM); PBS, 2% BSA, 51.3 ng/ul salmon testes DNA, 50 uM zinc acetate, 200 nM TF, 25 C, 1 h; high values mean tight binding. Conditions: protein: recombinant; tags: N-terminal polyhistidine and DsRed monomer fusion (pET32a); label: CyDye5-dUTP incorporated in the synthesized complementary strand; 3' TTTTT single-stranded linker to array surface; dsDNA, one strand shown. The gist of the method: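 Polyhistidine-tagged DsRed fusions of transcription factors, joined at the N-terminus, were expressed in E. coli BL21-CodonPlus and isolated on Ni–NTA. They were incubated at 200 nM for 1 h at 25 °C on a custom Agilent array, double-stranded and BSA-blocked, in PBS with 2% BSA, salmon testes DNA and 50 µM zinc acetate. The binding signal is per-feature fluorescence intensity (arbitrary units) read on an Axon 4000B scanner after washing.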
Consider “AGGGGAGGGGCAGGGAGTTTAATTGGGACTTGGAAGGAGGCGGAGTCACCTAGTGCAG”, for which the binding signal is 4790 fluorescence intensity (a.u.).
With “TTGCTAATTGCCGCACGATGGCAAACCAAGAAACAGATTGCGGAGTCACCTAGTGCAG” the figure was 20700 fluorescence intensity (a.u.); with “GAAATAACTAGATTATATTACTCTTTCATGCAATAAACATCGGAGTCACCTAGTGCAG”, 5080 fluorescence intensity (a.u.); with “TAATGTGTGTGTATAATTAATTAAGCAGTGAAGTGAATCGCGGAGTCACCTAGTGCAG”, 5650 fluorescence intensity (a.u.).
With “ACTCCATTAATTGGTCTAGGTTTTCTATCACCACCACATGCGGAGTCACCTAGTGCAG” the figure was 28300 fluorescence intensity (a.u.).
In the case of “GCAGCAGAGACAAGAGGACTGATTGATGAGGCCGCAAAGCCGGAGTCACCTAGTGCAG”, the binding signal is 12200 fluorescence intensity (a.u.).
With “AATTTAATTAGTTGATTAAGTTGCACAAATTAATCTAATACGGAGTCACCTAGTGCAG” the figure was 6010 fluorescence intensity (a.u.).
Regarding “TCAAATAAACTTTTAAATTTTACTAATCTAGTCAAAAGCCCGGAGTCACCTAGTGCAG”, the binding signal was 5900 fluorescence intensity (a.u.).
With “TTAAGATTTATTTCAAATAGATCATTTAAAATAGACCCCTCGGAGTCACCTAGTGCAG” the figure was 7260 fluorescence intensity (a.u.).
As to “CGTGGCAATTAACTATTTGCCATTAGACTCATATATTATACGGAGTCACCTAGTGCAG”, the binding signal is 4280 fluorescence intensity (a.u.).
With “CCTAATCATCCCTATCAACACACCTAAGCTCACCAAATTCCGGAGTCACCTAGTGCAG” the figure was 3450 fluorescence intensity (a.u.); with “TTCTGAATGTGATCACCTGACAAATTTGTTCAGAGTTATCCGGAGTCACCTAGTGCAG”, 5250 fluorescence intensity (a.u.).
With “CTCACATGTTAATTACCATCAATGTATTTTACTCTTTTAACGGAGTCACCTAGTGCAG” the figure was 16700 fluorescence intensity (a.u.); with “CGCGCGATTGAAGAAGAAATTCCAGTCCACAGTCAAGGCACGGAGTCACCTAGTGCAG”, 4590 fluorescence intensity (a.u.); with “TAAATTGGTATAGATGTATTGGAGTTAGTACTAGGCTATACGGAGTCACCTAGTGCAG”, 6680 fluorescence intensity (a.u.).
With “AACTTGAAACAATTTGATTTTGACTAAAGTCAAAACGTCTCGGAGTCACCTAGTGCAG” the figure was 4710 fluorescence intensity (a.u.); with “TAAATTATTTTCTATTTATAAATATGTCGTTTGCCTTATTCGGAGTCACCTAGTGCAG”, 4180 fluorescence intensity (a.u.); with “ACTAAACTGCCTTTCTTTAGATCTGGCTTCACAATGATGCCGGAGTCACCTAGTGCAG”, 3220 fluorescence intensity (a.u.).
“CTTTGCCTTGATTGGATCAGCTAGTCCTTCGTTTGAGTCCCGGAGTCACCTAGTGCAG”: the binding signal was 29800 fluorescence intensity (a.u.).
Take “GCTTAATTAGCCGCTTCAGTTGCACAGTAACTGAGGAACCCGGAGTCACCTAGTGCAG”: the binding signal is 32700 fluorescence intensity (a.u.).
With “CCGATGTGATAGGGACTTAAAAGTTTAAAAGTTTTAGTCCCGGAGTCACCTAGTGCAG” the figure was 7060 fluorescence intensity (a.u.); with “ATAAATTATCCCACCAAAATTCAACTGAATTCGATAAGTTCGGAGTCACCTAGTGCAG”, 7710 fluorescence intensity (a.u.).
With “GAAGATTGGGAAAATTGACAAGTTTCAAAGTTCAAACTGGCGGAGTCACCTAGTGCAG” the figure was 47400 fluorescence intensity (a.u.); with “TTTTAATCATCAATGTAACTTAACCTTCAGACTTCAATCCCGGAGTCACCTAGTGCAG”, 11000 fluorescence intensity (a.u.).
With “AAAAGTAATTTATAAATAAAATTTCTATATACGTGTTCTTCGGAGTCACCTAGTGCAG” the figure was 10600 fluorescence intensity (a.u.); with “ACACTAAATTATTCTACCCACAAATTAAATAATTGAAATACGGAGTCACCTAGTGCAG”, 9290 fluorescence intensity (a.u.); with “ATAAAATTTACAAACGGTAACAAGAACCTATGTTACATGACGGAGTCACCTAGTGCAG”, 9080 fluorescence intensity (a.u.).
For “ATTGCTGATTGTCTGTTCTTTTACTTGACATAACCTGAATCGGAGTCACCTAGTGCAG”, the binding signal was 30100 fluorescence intensity (a.u.).
With “TCATGTGCCAATCACCAGTGTCACACGAAGAGAGACGGCACGGAGTCACCTAGTGCAG” the figure was 12000 fluorescence intensity (a.u.); with “AAGCCAATTATAAACATATTTTGAGAAGATAGATAGGGAGCGGAGTCACCTAGTGCAG”, 6240 fluorescence intensity (a.u.); with “TCTGTGGTGATTTGTGCTGCGAGAGAAACTTCTTTGTCGACGGAGTCACCTAGTGCAG”, 5500 fluorescence intensity (a.u.).
Regarding “ACTTAGATAGTTTAATCACATCATTAGACCCTGGGGTGAGCGGAGTCACCTAGTGCAG”, the binding signal is 5080 fluorescence intensity (a.u.).
Turning to “AGTGTGATTATGCAATTCTAATTGCTGAACTTTTGGTGCTCGGAGTCACCTAGTGCAG”, the binding signal was 40500 fluorescence intensity (a.u.).
With “AATATGGATTGATTATGGTTGTGTTTTAGATGCCTTTCCTCGGAGTCACCTAGTGCAG” the figure was 17400 fluorescence intensity (a.u.).
With “GTTAAGTTAGTGCATAATTTAAAATTATATTGCTATTTTACGGAGTCACCTAGTGCAG” the figure was 6850 fluorescence intensity (a.u.).
Turning to “CATTCTCTCATCAATCATCCTATAGTTGCTCCCCTATTTCCGGAGTCACCTAGTGCAG”, the binding signal was 8360 fluorescence intensity (a.u.).
For “GGTTTGATGGAGGATGCTCTGACCGTCTTTCGCTCTTGTCCGGAGTCACCTAGTGCAG”, the binding signal is 5140 fluorescence intensity (a.u.).
With “AGGGTGATCCGAGTATAATTGGAACGGTAGTCAATCGTTTCGGAGTCACCTAGTGCAG” the figure was 4650 fluorescence intensity (a.u.); with “TTTTGAAATTATTAATTATTTTATTTGTGACTTACTTTATCGGAGTCACCTAGTGCAG”, 14800 fluorescence intensity (a.u.).
With “GGATAATTTTGCTTTCCTTGAGGTTCATTCCAATTATTTTCGGAGTCACCTAGTGCAG” the figure was 7740 fluorescence intensity (a.u.); with “CATAATTACCGTGGCAATAGACAGCGATCGTGGCTGTTCGCGGAGTCACCTAGTGCAG”, 35900 fluorescence intensity (a.u.); with “CGCGGGCGTGATTAGGGTTTGCGGCTGGGGTTGCGGTGCACGGAGTCACCTAGTGCAG”, 21300 fluorescence intensity (a.u.).
